# Measurements published in the supplement of paper PMC3334620.
# Whole data set: some 33,000 sequences, median “E-score (-0.5 to 0.5)” near -0.053, cut for the highest 2% near 0.37. Some of the results follow.
# Molecular target: Hap1 (UniProt P0CE41)
# Test: PBM E-score (8-mer binding enrichment) (E-score (-0.5 to 0.5)); higher = stronger / more preferred TF binding; most listed sequences are background and not binding sites
# Conditions: protein concentration: 200 nM; construct: GST-DNA-binding domain
# How it was run: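 PURExpress in vitro transcription/translation supplied GST-tagged yeast transcription factors, either full-length or DNA-binding domain. Applied at about 100-200 nM to universal all-10-mer Agilent arrays double-stranded by primer extension, the bound protein was detected with fluorescent anti-GST. E-scores, modified Wilcoxon-Mann-Whitney statistics, were given by the Universal PBM Analysis Suite to ungapped eight-base words pooled with their reverse complements after masliner normalisation.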
# UniProt P0CE41, sequence (P0CE41 whole entry): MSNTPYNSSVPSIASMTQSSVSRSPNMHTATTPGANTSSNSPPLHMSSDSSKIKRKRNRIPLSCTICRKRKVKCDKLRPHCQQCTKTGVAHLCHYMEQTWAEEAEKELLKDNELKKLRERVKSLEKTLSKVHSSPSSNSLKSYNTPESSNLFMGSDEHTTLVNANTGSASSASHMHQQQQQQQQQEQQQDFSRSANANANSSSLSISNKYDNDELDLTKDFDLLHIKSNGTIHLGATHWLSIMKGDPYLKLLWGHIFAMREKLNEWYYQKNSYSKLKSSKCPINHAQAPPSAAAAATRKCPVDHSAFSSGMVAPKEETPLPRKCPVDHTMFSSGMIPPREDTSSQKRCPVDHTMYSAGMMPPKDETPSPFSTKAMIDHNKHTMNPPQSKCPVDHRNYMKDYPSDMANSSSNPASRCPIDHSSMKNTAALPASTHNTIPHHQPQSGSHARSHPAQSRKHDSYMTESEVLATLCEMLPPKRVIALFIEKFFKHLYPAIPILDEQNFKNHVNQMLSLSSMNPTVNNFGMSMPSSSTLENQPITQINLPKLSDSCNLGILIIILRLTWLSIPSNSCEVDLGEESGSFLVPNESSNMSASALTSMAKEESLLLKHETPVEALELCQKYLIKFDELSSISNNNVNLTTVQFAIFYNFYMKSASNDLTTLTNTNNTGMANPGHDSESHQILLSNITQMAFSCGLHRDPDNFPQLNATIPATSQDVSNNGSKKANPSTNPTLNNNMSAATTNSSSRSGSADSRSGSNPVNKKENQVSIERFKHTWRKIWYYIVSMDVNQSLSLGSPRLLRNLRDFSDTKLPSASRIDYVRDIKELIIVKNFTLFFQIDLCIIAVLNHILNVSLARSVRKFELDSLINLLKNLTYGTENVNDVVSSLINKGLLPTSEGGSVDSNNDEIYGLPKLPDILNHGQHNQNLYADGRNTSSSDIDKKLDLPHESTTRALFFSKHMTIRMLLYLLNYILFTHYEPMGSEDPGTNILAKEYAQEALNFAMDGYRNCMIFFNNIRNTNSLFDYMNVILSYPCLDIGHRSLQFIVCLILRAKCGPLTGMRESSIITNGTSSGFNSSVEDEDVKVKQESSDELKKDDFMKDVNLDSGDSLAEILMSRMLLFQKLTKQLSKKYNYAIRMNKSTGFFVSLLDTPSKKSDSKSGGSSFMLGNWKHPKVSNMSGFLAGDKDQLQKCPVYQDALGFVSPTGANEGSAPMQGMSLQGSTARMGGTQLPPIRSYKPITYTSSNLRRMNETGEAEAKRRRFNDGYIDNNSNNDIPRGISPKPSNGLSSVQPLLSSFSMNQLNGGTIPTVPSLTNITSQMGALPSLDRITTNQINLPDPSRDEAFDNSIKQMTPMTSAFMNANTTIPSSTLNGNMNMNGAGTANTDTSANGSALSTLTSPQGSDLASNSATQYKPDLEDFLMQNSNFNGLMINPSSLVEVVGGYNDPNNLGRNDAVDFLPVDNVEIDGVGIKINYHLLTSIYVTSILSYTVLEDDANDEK
row,Sequence,PBM E-score
1,ACGAGCTG,-0.0885
2,CAAGCGCA,0.0682
3,CTTCTGAC,-0.224
4,ACATGAAC,-0.11
5,ATCACAGG,-0.215
6,TGCTCCAA,-0.275
7,TCTCGTAA,0.00809
8,GTATTCAC,0.0243
9,CCCAGTCG,-0.00493
10,ATGCTACG,-0.0869
11,AAACGTAC,-0.288
12,AATTTCTG,-0.136
13,AAATTTAA,-0.0493
14,GAGCATAA,0.0718
15,ATACGTAG,-0.186
16,GTTCTGCA,-0.0999
17,CCGTGCTA,-0.0798
18,ACTCAGCC,-0.072
19,AAATACTT,-0.00908
20,GGCGTAAC,0.0164
21,ATGATACA,-0.148
22,ACATACGC,0.078
23,CAATCACG,0.0708
24,TGTAAGAA,-0.0011
25,TAACTAGA,0.0345

row,Sequence,PBM E-score
1,AATAATGG,0.121
2,CGGTTATC,0.252
3,GGTAGATA,0.12
4,ATAAACAG,-0.038
5,AACCCGCT,0.16
6,ACTGAATA,-0.17
7,AACGACTA,-0.161
8,AGAGACCA,-0.177
9,TCCGGCAA,0.326
10,CGAGGTAA,0.16
11,CTTAGGTA,-0.087
12,GCCCCCCA,-0.255
13,ACTTTTCT,-0.217
14,ATGCTGCA,-0.189
15,ACTGCCGA,0.261
16,CACACAAC,-0.209
17,GCTACAGC,-0.143
18,GATTGGCC,0.0423
19,AAACAGTT,0.071
20,ACGCACTC,-0.101
21,AGTAGCAT,-0.0316
22,AAACTTGA,-0.241
23,AAGACTCA,-0.343
24,AGTTGCAA,-0.0437
25,CTCCAATC,-0.121

row,Sequence,PBM E-score
1,GCCCAACC,-0.0221
2,CAGACACG,-0.038
3,ATATTGTC,0.2
4,AAGAGCCT,-0.219
5,ATGCTAAG,-0.0785
6,AACGTGTG,-0.333
7,GTCAGATA,-0.144
8,ACGCTCAC,0.0603
9,GATACAGC,0.0804
10,CTGATTGC,-0.115
11,TCTTAAGA,-0.0949
12,ATATCTAA,-0.0587
13,AAATCGGG,0.246
14,CTCGGAGA,0.407
15,GTCCTAGA,-0.246
16,TGACGTCA,-0.0588
17,AAACCATG,0.125
18,AGAACAGC,-0.0131
19,ATCATAGC,-0.06
20,GAACTACC,0.00478
21,GAACACGC,0.183
22,CTGCTGAC,-0.15
23,CTAATCTA,0.0829
24,CTATGGGA,-0.109
25,AAGTGCCC,0.0673

row,Sequence,PBM E-score
1,ACCTTTCA,-0.0864
2,GACGATCC,0.0734
3,ACGCGGCG,0.241
4,CCCGCAAA,0.205
5,AAACAAAA,-0.135
6,TACCTAGA,-0.225
7,AACTAGGG,-0.203
8,ACAAAAAA,-0.0543
9,CACTGTCA,-0.261
10,CTCGCCTA,-0.013
11,CAGGAAAA,-0.0124
12,CGCGAGAA,0.0972
13,CCGTATGC,0.139
14,GCGCGACC,0.0577
15,GTCCATGA,-0.249
16,CAGAAGGA,-0.341
17,AACCTAAG,-0.15
18,AGCCCTCG,-0.0699
19,CAGTTAAA,-0.157
20,TTCTTAAA,-0.154
21,AACAGATG,-0.127
22,AAAAACCA,0.0345
23,GACGACGA,-0.0332
24,GGAAATCC,0.234
25,GCGATAAC,0.322

row,Sequence,PBM E-score
1,CATGTGAG,-0.215
2,AGCCCGCT,-0.00085
3,CGACCATA,-0.0579
4,ATACGTCG,0.135
5,AAAGACAT,-0.195
6,TACAAATA,-0.0421
7,CGGACCAC,0.279
8,CATTTGTA,-0.0948
9,AAAGTTAC,-0.202
10,AGGGGCAT,-0.153
11,GGTATTAA,0.265
12,AGACTGAG,-0.208
13,CGCCTGCA,-0.0935
14,ACGGACTG,0.159
15,CGAACTAA,0.0162
16,CCTGGGAA,-0.142
17,CCGATTCG,0.347
18,ACGGTCAA,0.161
19,CATTACGA,-0.296
20,AACGATAA,0.131
21,ATAACCCG,0.268
22,CCTGATCA,-0.235
23,CGTCATCC,0.0326
24,AAAGGATC,-0.126
25,AGCAGAGC,-0.207

row,Sequence,PBM E-score
1,AGGACGTC,-0.15
2,ACAATGCC,0.0614
3,GCCTTGCA,-0.198
4,ATAAAGGG,-0.114
5,CCTCTAAA,-0.289
6,AGCATCTC,-0.13
7,GCACAAAA,0.115
8,CACCATCG,-0.192
9,ACCCTCTC,-0.187
10,GTCCCTAA,-0.126
11,CTCGCAAA,-0.236
12,GACTGTAC,-0.171
13,AAGGGTCT,-0.0614
14,ACCAGTAG,-0.199
15,CTTGGATA,0.057
16,ATTGGCGA,-0.102
17,GTTTAGGA,-0.103
18,AGAGCGGA,0.13
19,AATCACCT,-0.0893
20,AAGGACTT,0.0585
21,AGCCTCAT,-0.156
22,ATCTCATC,-0.0811
23,CGAACCCA,-0.0238
24,AAACTCTC,-0.0198
25,CATGGTTA,-0.0725

row,Sequence,PBM E-score
1,CTGTACGA,-0.224
2,AGTGTGAG,-0.163
3,CAAATCCA,-0.0837
4,CGCCACCG,0.00342
5,CATCCGTC,0.173
6,AGATTGCC,0.0774
7,CGACAATA,0.192
8,TCGCATAA,0.00981
9,GTGATACA,-0.00703
10,ATGCCTGA,-0.169
11,ATTAGCCC,0.111
12,CTCCCAAG,-0.131
13,GTCCTTCA,-0.162
14,AATACAGT,-0.224
15,CTCACGTA,-0.0209
16,AAGTTTAA,-0.122
17,AAAGGGTT,-0.0226
18,CGAACGTC,0.0803
19,ACATACAA,-0.0204
20,GACCTGCA,-0.302
21,AAACCCTG,0.0367
22,TACCCCAA,0.033
